About 6,200 (6.6%) of roughly 94,000 compounds were called active. This list was built around the results that the source calls inconclusive (neither active nor inactive); the mix of calls is not that of the screen. The call rests on the fitted dose curve; in most records, active means well fitted inhibition curve with a large enough effect; inconclusive means small, poorly fitted or top-dose-only effect; inactive means flat fitted curve, though single readings scatter. A potency beside an inconclusive call is a rough fit, not a confirmed value.
experiment: Cytotoxic Profiling in HEK 293 Cell Line of Diverse Libraries Using Quantitative High-Throughput Screening; conditions: HEK 293 viability, ATP luminescence (CellTiter-Glo), 48-72 h; activity change, negative = cytotoxicity: at 115 µM (top of the series) unless noted; series mostly up to 115 µM; further: nearly all actives have a fitted effect of over 60% in size
How it was run: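 Luminescence from cellular ATP, measured with CellTiter-Glo, indicates HEK 293 viability. Cells plated at 250 cells/well are treated with compound for 48 or 72 hr at 37 degree Celsius before reagent addition.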
On the % scale 0 is the no-effect control and ±100 the full control effect; potency means the concentration at half of the fitted maximal effect; tags describe the fitted curve by direction and shape.

Compound	activity change, negative = cytotoxicity	Potency	outcome
CC(C)CN[C@@H]1C[C@H](CO)[C@@H](O)[C@H]1O	inactive: -0.758% [at 287 µM]	–	–
O=C(NCCCc1ccccc1)c1n[nH]c2c1CN(C(=O)c1ccc(F)cc1)CC2	–	inconclusive: 89.1 µM [inhibitor, single point]	–
COC(=O)CNC(=O)C1CCCN(c2nccc(Nc3ccc(C)cc3)n2)C1 (configuration not stated)	–	inconclusive: 89.1 µM [inhibitor, single point]	–
CC1(C)[C@H]2CC[C@@H](CNC(=O)c3cccc4[nH]ccc34)[C@@H]1C2	–	inconclusive: 112 µM [inhibitor, partial curve, poor fit]	–
CC1(COCC2CC2)COc2ccc(C(=O)Nc3ccccc3)cc2N1 (configuration not stated)	–	inconclusive: 44.7 µM [inhibitor, partial curve, poor fit]	–
O=C(Nc1ccccc1)N[C@H]1CO[C@H]2[C@@H]1OC[C@@H]2Nc1nccc(-c2cccs2)n1	–	active: 63.1 µM	–
Cn1ccnc1CN1CCC2(CC1)OC(=O)N(Cc1ccccc1F)C2(C)c1ccccc1 (configuration not stated)	–	inconclusive: 50.1 µM [inhibitor, partial curve, poor fit]	–
Cc1nc(CN2C[C@H](C(=O)Nc3cccc(Cl)c3)C[C@@H]2c2ccc(F)cc2)cs1	–	active: 50.1 µM	–
CC(C)c1noc(-c2cn(C3CCN(C(=O)c4ccc(F)cc4)C3)nn2)n1 (configuration not stated)	–	inconclusive: 56.2 µM [inhibitor, partial curve, poor fit]	–
CCCNC(=O)[C@@H]1Cc2cn(Cc3ccncc3)c3cccc(c23)[C@H](CC(C)C)N1	–	active: 31.6 µM	–
Fc1ccc(CNCc2cccnc2N2CCN(c3ccccn3)CC2)cc1F	–	inconclusive: 25.1 µM [inhibitor, full curve]	–
COCCCNC(=O)c1ccc2oc(-c3ccncc3)nc2c1	inactive: -22.8% [at 172 µM]	–	–
O=C1NC(=NC2CCCC2)C2(CCCN(Cc3cccnc3)C2)N1c1cc(F)cc(F)c1 (configuration not stated)	inactive: 2.25%	–	–
COC(=O)[C@@H]1Cc2nc[nH]c2CN1Cc1ccc(Cl)cc1	–	inconclusive: 126 µM [inhibitor, single point]	–
CCC(C)N1Cc2cc(NC(=O)Cc3cccc(OC)c3)ccc2OCC1=O (configuration not stated)	–	inconclusive: 56.2 µM [inhibitor, partial curve, poor fit]	–
COc1ccc(CCNC(=O)c2ccc3c(c2)N(C)C2CCCN2C3=O)cc1OC (configuration not stated)	inactive: -12.7%	–	–
Cc1noc(C)c1-c1cc2c(cc(C)n2C)c(-c2ccnn2C)n1	–	inconclusive: 79.4 µM [inhibitor, partial curve]	–
O=C(O)c1ccc(CN2CCOC[C@H]2c2ncc(-c3cccnc3)[nH]2)cc1	inactive: -0.259% [at 172 µM]	–	–
COC(=O)CNC(=O)N1CCC(OC2CCN(Cc3ccccc3)CC2)CC1	inactive: 7.12%	–	–
c1ccc(CCn2cnc3cccnc32)cc1	inactive: -25.6% [at 230 µM]	–	–
CCn1cc(S(=O)(=O)NCC2Cn3cccc3C(=O)N2C)cn1 (configuration not stated)	inactive: -5.06%	–	–
COCCOC1CN(C2CCN(C(=O)c3cc(C)nn3C)CC2)C12CCCCC2 (configuration not stated)	–	–	inactive
COc1ccc(N2CC(c3noc(-c4cc(C)cc(C)c4)n3)CC2=O)cc1OC (configuration not stated)	–	inconclusive: 89.1 µM [inhibitor, single point]	–

Compound	activity change, negative = cytotoxicity	Potency	outcome
c1cc(N2CCOCC2)ccc1-c1cc(-c2cn[nH]c2)c2cncn2c1	–	inconclusive: 100 µM [inhibitor, partial curve, poor fit]	–
N#Cc1ccc(S(=O)(=O)N[C@H](Cc2ccccc2)C(=O)N2CCOCCNC(=O)CC2)cc1	inactive: -13.7%	–	–
Cc1cccc(C(=O)N2CCC[C@H]2c2nc(-c3ccccc3)no2)c1	–	inconclusive: 50.1 µM [inhibitor, partial curve, poor fit]	–
Cc1ccc(C(=O)N2CCC3(CCC3N3CCOCC3)CC2)s1 (configuration not stated)	inactive: -23.2%	–	–
O=C(N[C@@H]1C[C@@H]2CO[C@H](c3ccccc3)C[C@@H]2C1)c1cc2ccccc2o1	–	inconclusive: 79.4 µM [inhibitor, partial curve, poor fit]	–
COc1ccc(-c2cc(N3CCCC(NC(=O)c4cccc(OC)c4OC)C3)n[nH]2)cc1 (configuration not stated)	–	inconclusive: 56.2 µM [inhibitor, partial curve, poor fit]	–
Nc1cc(N2CCC(Oc3ccc4c(c3)OCO4)(C(=O)O)CC2)ncn1	inactive: 1.76%	–	–
Clc1ccccc1C1Cn2cnc(-c3nc(-c4ccccn4)no3)c2CO1 (configuration not stated)	–	inconclusive: 79.4 µM [inhibitor, partial curve, poor fit]	–
COCC1(c2n[nH]c(C3CCOCC3)n2)CCC1	inactive: -14.9%	–	–
COc1ccc2cc1Nc1ccc(cc1)C[C@H](NCc1ccc3c(c1)CCO3)C(=O)N(C)[C@H](C(=O)NCCC(C)C)C2	–	inconclusive: 39.8 µM [inhibitor, full curve]	–
Cc1ccc(CC(=O)N2CCN(c3cc(-c4ccccc4)[nH]n3)CC2)cc1	–	inconclusive: 50.1 µM [inhibitor, partial curve, poor fit]	–
N#Cc1cccnc1-c1ccc(C(=O)O)cc1	inactive: 2.67% [at 172 µM]	–	–
CC(C)(C)c1ccc(C(=O)N2CC[C@H]3NC(=O)N(Cc4ccccc4)C(=O)[C@H]32)cc1	–	inconclusive: 112 µM [inhibitor, partial curve, poor fit]	–
COCCn1c(C)nnc1-c1cc(-c2cccc(OC)c2)ccn1	–	inconclusive: 112 µM [inhibitor, partial curve, poor fit]	–
COc1ccc(-c2nc(C(C)C)nc3c2CCN([S+](=O)([O-])c2ccc(C)cc2)CC3)cc1	–	–	inactive
O=C(Nc1cccc(Cl)c1)C1CN(C2CCCCC2)C(=O)N1 (configuration not stated)	–	inconclusive: 100 µM [inhibitor, partial curve, poor fit]	–
COCCN1Cc2ccc(NCC(C)C)nc2C(C)(C(=O)NCc2cccnc2)C1 (configuration not stated)	–	inconclusive: 100 µM [inhibitor, partial curve, poor fit]	–
CN(C1CCc2ccccc21)[S+](=O)([O-])c1cccc(C(F)(F)F)c1 (configuration not stated)	–	inconclusive: 79.4 µM [inhibitor, partial curve, poor fit]	–
CC(C)Oc1ccc(-c2noc(-c3ncn4c3COC(c3ccc(F)cc3)C4)n2)cc1 (configuration not stated)	inactive: -0.774%	–	–
O=c1c2c3c(nn2ccn1Cc1cc(F)ccc1F)CCCC3	–	inconclusive: 50.1 µM [inhibitor, partial curve, poor fit]	–
COCCn1c2c(c(=O)n1-c1ccccc1)CCN(C(=O)c1cc3ccccc3[nH]1)C2	–	inconclusive: 112 µM [inhibitor, single point]	–
COc1cccc(S(=O)(=O)N2CCC(n3cnnc3-c3ccccc3)CC2)c1	–	inconclusive: 44.7 µM [inhibitor, partial curve, poor fit]	–
FC(F)(F)c1ccc(CN2CCC3(CC(c4cccnc4)=NO3)C2)cc1 (configuration not stated)	–	inconclusive: 70.8 µM [inhibitor, single point]	–

Compound	activity change, negative = cytotoxicity	Potency	outcome
COc1ccc(-c2nccn3cc(C(=O)NCCc4cccnc4)nc23)cc1	inactive: -14.3%	–	–
COCCOc1ccc(C(=O)N[C@@H]2CN(C(=O)Nc3cccc(C(F)(F)F)c3)CCC[C@H]2O)cc1	–	inconclusive: 89.1 µM [inhibitor, single point]	–
Oc1ccc(-c2nc(C3CC3)nc3c2CN(Cc2ccc(F)cc2)CC3)cc1	–	inconclusive: 56.2 µM [inhibitor, partial curve, poor fit]	–
COc1cncc([C@@H](NC(=O)c2ccc(CO)o2)C2CC(O)C2)c1 (some centres not stated)	–	–	inactive
CCCNC(=O)c1cccc2c1CCN2S(=O)(=O)c1ccccc1F	–	inconclusive: 70.8 µM [inhibitor, partial curve]	–
COc1ccc2c(c1)C(CN1CCN(c3ccc4oc(C(=O)O)cc4c3Cl)CC1)=CC(C)(C)CO2	–	inconclusive: 56.2 µM [inhibitor, partial curve, poor fit]	–
COc1ccc(-c2[nH]nc3ncc(C(=O)Nc4ccn(C)n4)nc23)c(C)c1	–	active: 89.1 µM	–
O=C(c1ccccc1F)N1CCC2(CC1)N(c1ccccc1)C(=O)CS2(=O)=O	inactive: 1.12%	–	–
Cc1ccccc1NC(=O)c1cnc2c(c1)N(C(=O)Cc1ccc(C(C)C)cc1)CCC2	–	active: 100 µM	–
O=C(c1cccc(Cl)c1)N1CCCC2(CN[S+](=O)([O-])c3cccnc3N2)C1 (configuration not stated)	inactive: -7.79%	–	–
COc1ccc(CN2CCCC23Cc2ccccc2CNC3=O)cn1 (configuration not stated)	inactive: -29.6%	–	–
O=C(c1ccccc1Cl)N1CCCCC12Cc1ccccc1NC2=O (configuration not stated)	–	inconclusive: 79.4 µM [inhibitor, partial curve]	–
CN(C)C(=O)c1cc(-c2cccc(C(F)(F)F)c2)c2nncn2n1	–	–	inactive
CC1=C[C@@H](CNC(=O)CC2(CC(=O)O)CCCC2)[C@H](C(C)C)C[C@H]1Cc1nc2ccccc2[nH]1	inactive: 0.704%	–	–
COc1ccccc1-c1ncc(CN2CCCC3(CCNCC3)CC2)cn1	–	inconclusive: 89.1 µM [inhibitor, single point]	–
O=C(c1noc(-c2ccc(F)cc2)n1)N1CCN(c2ccccc2)CC1	–	inconclusive: 79.4 µM [inhibitor, partial curve, poor fit]	–
COCCOC1CCOC2(CCN(C(=O)Nc3cccc(C)c3)CC2)C1 (configuration not stated)	inactive: -24%	–	–
Cc1noc(C)c1[S+](=O)([O-])N1CCC2(CC1)CC(=O)Nc1ccccc1O2	–	inconclusive: 89.1 µM [inhibitor, single point]	–
COc1cccc(N2C(=O)NC(=NC3CCCCC3)C23CCN(C(=O)c2ccccc2)C3)c1 (configuration not stated)	–	inconclusive: 100 µM [inhibitor, single point]	–
O=C(N1CCCC1c1nc(CCOc2ccc(F)cc2)no1)C1(c2ccccc2)CC1 (configuration not stated)	–	inconclusive: 56.2 µM [inhibitor, partial curve, poor fit]	–
CNC(=O)c1cn2c(n1)CN(S(=O)(=O)c1cccc(OC)c1)CC2	–	–	inactive
